Values joined by “and” are separate entries in the source; they are usually repeats but may differ in a detail not shown here. Equal entries are not always repeated. About 540 (0.36%) of roughly 150,000 compounds showed an effect of 50% or more. The list shows a part of the results.
System: Plasmodium falciparum
Experiment: Primary screen in NF54 nanoGlo assay, in single point, at 2uM, 72h; a lower Z score goes with more inhibition
Type: functional, Erythrocyte
Details: timepoint 72 hour

SMILES | % Inhibition [%] | Z score | % Inhibition (2 µM)
COc1ccccc1OCC(=O)N(Cc1ccc(-c2ccc(Cl)cc2)o1)[C@H]1CCS(=O)(=O)C1 | -24 | 3.14 | 
NS(=O)(=O)c1ccccc1CNC(=O)N1CC2(CCOCC2)C1 | 6 | -1.06 | 
CCCC[C@@H](CN)NC(=O)c1cnn(-c2ncccc2Cl)c1C(F)(F)F | -7 | 0.88 | 
Cc1cc(C(=O)N[C@H]2CCO[C@@H]2c2c(C)nn(C)c2C)cc(C)c1F | -6 | 1.05 | 
CCS(=O)(=O)NCCN1c2ccccc2OC[C@@H]1C | 1 | -0.22 | 
O=C(c1ncccc1F)N1CCC(O)(Cc2ccncc2)CC1 | -7 | 0.93 | 
CNS(=O)(=O)N1CCCc2ccccc2CC1 | -5 | 0.88 | 
CCc1[nH]c2c(CNC(=O)[C@H](C)n3cncn3)cc(F)cc2c1C | 12 | -1.61 | 
CN(C)C[C@H]1CCN(Cc2[nH]c3ccccc3c2Cl)C1 | -13 | 2.42 | 
Cc1ccc2[nH]c(C3CN(S(=O)(=O)c4ccc5c(c4)OCCO5)C3)nc2c1 | -17 | 3.26 | 
Cc1ccc(NC(=O)C(F)(F)F)cc1Br | -1 | 0.08 | 
CCN1CCN(Cc2cc(C)cc(CN3C[C@H]4CC[C@@H](C3)[C@H]4O)c2C)CC1 | -24 | 2.29 | 
COc1ccccc1OCCN1C[C@@H](C(=O)Nc2ccc(F)c(F)c2F)CC1=O | 2 | -0.22 | 
COCCC1(CN[C@@H](C)c2ncc(Br)cc2Cl)CC1 | -4 | 0.41 | 
Fc1ccccc1C1(c2nc([C@H]3CCOC3)no2)CC1 | 4 | -0.53 | 
N#Cc1cn(-c2ccc(NC(=O)CC[C@H]3CCCOC3)cc2)nc1N | -15 | 2.41 | 
CCC(COC)NC(C)c1ccc(=O)[nH]n1 (stereo not given) | -12 | 2.34 | 
CCOC(=O)C1CCCCN1C(=O)CC1(c2ccccc2OC)CC(=O)N(C2CCCC2)C1=O (stereo not given) | -6 | 1.14 | 
CN(C)C(=O)c1cnc(N(C)C)nc1[C@H]1CCN(Cc2ccccc2)C1 | -4 | 0.52 | 
N#CCCN(Cc1ccccc1)C(=O)C1(c2ccccc2)CCCC1 | -8 | 1.1 | 
C[C@H]1CCN(c2cc(C(=O)N3CCC(C)(N4CCOCC4)CC3)ccn2)C1 | 0 | 0.06 | 
c1ccc(COc2ccc(CN3CC(c4nc(-c5ccsc5)no4)C3)cc2)cc1 | -23 | 2.65 | 

SMILES | % Inhibition [%] | Z score | % Inhibition (2 µM)
Cc1c(Cl)ccc(NC(=O)NC[C@@H](O)CO)c1Cl | -12 | 1.15 | 
O=C(Oc1ccc(Cl)cc1)c1ccc2snnc2c1 | -15 | 2.01 | 
Cc1nc(CC[C@H]2CCCN2C(=O)C2CCCCC2)no1 | -1 | 0.15 | 
c1ccc2c(c1)CCN(c1nccc(-c3ccsc3)n1)C2 | -16 | 2.4 | 
CCCN(CCO)CC(=O)N1CCC(C)CC1 | -4 | 0.62 | 
Cn1ncc2c1CCC[C@@H]2NCCc1ccccc1O | -5 | 0.59 | 
O=C(CCc1cccnc1)N1CCO[C@H](C(=O)N2CCCCCCC2)C1 | -16 | 3.14 | 
CCS(=O)(=O)N1CC(=O)N(c2cc(C)ccc2OC)[C@](C)(C(=O)NC2CCCCCC2)C1 | -13 | 1.65 | 
Cc1ccc(CN(CCO)C(=O)NCc2n[nH]c3c2CCC3)s1 | -20 | 2.12 | 
O=C([C@@H]1COCCN1)N1CCN(c2ccccc2F)CC1 | -6 | 0.76 | 
Cc1ccc(CC(OC(=O)C2CCCN(C(N)=O)C2)C2CC2)cc1 (stereo not given) | -5 | 0.49 | 
COCCN(C[C@@H]1CC=CCC1)C(=O)C1CCS(=O)(=O)CC1 | 3 | -0.43 | 
CC(C)n1nccc1[C@H]1OCC[C@@H]1C(=O)N1CCCC(S(C)(=O)=O)C1 (stereo not given in full) | -8 | 1.27 | 
CC(C(=O)N[C@@H](C)C(=O)NCCc1c[nH]c2ccccc12)n1cnc2ccccc2c1=O (stereo not given in full) | -5 | 0.65 | 
O=C(NCC1(c2ccccn2)CCC1)N1CCC2(CCC2)S(=O)(=O)CC1 | -8 | 1.51 | 
c1ccc(C/N=C2\CCc3ccccc3N2)cc1 |  |  | -12% and 2%
CS(=O)(=O)NC[C@@H](c1ccco1)N1CCCC1 | -7 | 1.3 | 
Cc1cccn2cc(CS(=O)(=O)[C@@H](C)C(=O)NC3CCCC3)nc12 | 3 | -0.41 | 
CC(=O)N1C(c2ccccc2)CC(O)C(c2ccccc2)C1c1ccccc1 (stereo not given) | -31 | 3.69 | 
Cc1ccc2c(=O)n(CC[C@H]3CCCCN3C)cnc2c1C | -7 | 1.32 | 
Cc1ccc(NC(=O)N2CCC(n3cnc4cccnc43)CC2)c(C)c1 | -6 | 0.85 | 

Reference: ChEMBL document CHEMBL4888484, “Replenishing the malaria drug discovery pipeline: Screening and hit evaluation of the MMV Hit Generation Library 1 (HGL1) against asexual blood stage Plasmodium falciparum ,using a nano luciferase reporter read-out” (2022)
